Consider 69 compounds from PubChem BioAssay AID488969 (Vanderbilt High Throughput Screening Facility, 2010).

Over roughly 110,000 compounds, “z-score” has its median near -0.1; the highest 2% begin near 2. The list shows a part of the results. The source made the active and inactive calls.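 The calls were made as follows: active = z-score in the third read window above 3 or below -3; inactive = the rest.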

The assay addresses Metabotropic glutamate receptor 8 (Rattus norvegicus) (UniProt P70579). Kind of assay: rat mGluR8 modulators via GIRK flux, primary screen, cell-based, thallium flux, HTS (AID 488969). Particulars: HEK293 rat mGluR8, GIRK (G protein-gated inwardly rectifying potassium channel) thallium flux, FluoZin2; at 10 µM; stronger effect = higher value; submaximal glutamate (EC20) added with thallium.
UniProt P70579, sequence (P70579 whole entry, looked up): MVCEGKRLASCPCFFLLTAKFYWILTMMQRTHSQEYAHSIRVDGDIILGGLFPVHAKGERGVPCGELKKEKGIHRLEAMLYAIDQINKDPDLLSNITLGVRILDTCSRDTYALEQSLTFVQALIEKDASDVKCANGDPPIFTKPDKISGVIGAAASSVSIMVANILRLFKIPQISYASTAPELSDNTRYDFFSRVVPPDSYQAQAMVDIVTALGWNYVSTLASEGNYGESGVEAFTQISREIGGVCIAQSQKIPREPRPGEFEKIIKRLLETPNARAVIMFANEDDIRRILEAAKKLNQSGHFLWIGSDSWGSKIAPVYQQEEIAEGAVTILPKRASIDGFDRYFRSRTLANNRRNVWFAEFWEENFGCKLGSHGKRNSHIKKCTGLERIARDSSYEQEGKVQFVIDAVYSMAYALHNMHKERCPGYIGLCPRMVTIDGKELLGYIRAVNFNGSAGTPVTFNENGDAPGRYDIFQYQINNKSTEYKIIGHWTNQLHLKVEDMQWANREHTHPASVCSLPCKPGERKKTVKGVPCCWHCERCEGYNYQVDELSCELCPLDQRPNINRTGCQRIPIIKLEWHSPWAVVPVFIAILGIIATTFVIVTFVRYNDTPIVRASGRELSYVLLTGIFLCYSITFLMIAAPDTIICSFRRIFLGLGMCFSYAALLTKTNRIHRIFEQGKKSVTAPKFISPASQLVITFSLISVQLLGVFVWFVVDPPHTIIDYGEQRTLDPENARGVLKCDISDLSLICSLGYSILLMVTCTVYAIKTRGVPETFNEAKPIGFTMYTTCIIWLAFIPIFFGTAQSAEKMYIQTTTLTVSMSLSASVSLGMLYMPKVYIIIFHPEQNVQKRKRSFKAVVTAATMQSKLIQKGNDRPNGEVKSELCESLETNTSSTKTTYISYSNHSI
In turn, `c1ccc(-n2nc3ccccc3n2)cc1` showed a z-score of -0.148.
Compound `O=C(NC(Cc1ccccc1)C(=O)O)c1ccc(S(=O)(=O)N2CCCC2)cc1` (centres undefined) returned a z-score of 0.0624.
Then `COc1ccc(OC)c(C(=O)N2CCC(C(=O)c3ccc(F)cc3)CC2)c1`, with -0.587.
With `CCN(c1ccccc1)c1nc2ccsc2c(=O)s1` the figure was -0.392.
`CCOC(=O)c1cnc(SCc2nc(N)nc(Nc3ccccc3OC)n2)nc1N` yielded a z-score of -0.34.
With `Cc1cc(C)cc(NC(=O)N2CCC(NC(=O)c3ccccc3C)CC2)c1` the figure was -0.296.
With `O=C(Nc1ccon1)C(Sc1ccccc1)c1ccccc1` (centres undefined) the figure was -0.459; with `COc1ccc(-c2nn(-c3ccccc3)cc2/C=C(/C#N)C(N)=O)cc1[N+](=O)[O-]`, -0.112.
With `COC(=O)c1ccccc1NC(=O)CSc1nnnn1C1CCCCC1` the figure was -0.894; with `COc1cc(/C=N/NS(=O)(=O)c2ccccc2)ccc1OS(=O)(=O)c1ccc(C)cc1`, -0.33; with `COCCn1nnnc1C(c1cccs1)N1CCN(c2ccccc2)CC1` (centres undefined), 0.411.
`Cc1cc2ncn(C(=O)N3CCCC3)c2cc1C` had a z-score of 0.0628.
Then `FCCCOc1ccc(/C=N/OCc2ccc(Cl)cc2Cl)cc1`, with 0.201.
Then `CCCCNCCOCCOc1ccc(F)cc1`, with 0.866; and `CC(=O)Nc1ccc(S(=O)(=O)NCc2ccc(C(=O)NCc3ccc4c(c3)OCO4)cc2)cc1`, with -0.275; and `CCOC(=O)C1CCN(C(C(=O)Nc2ccc3c(c2)OCCO3)c2ccccc2)CC1` (centres undefined), with -0.863.
`Cc1cc(=O)n2[nH]c(=O)c(N=Nc3ccccc3)c2[nH]1` had a z-score of -0.442.
With `Cc1c(C(=O)NCC2CCCO2)oc2ccc(S(=O)(=O)N3CC(C)CC(C)C3)cc12` (centres undefined), the z-score is 1.9.
The compound `COCCCNC(=O)c1c(-c2ccccc2)noc1C` yielded a z-score of -0.662.
Then `Cn1ncc([N+](=O)[O-])c1C(=O)Nc1nc2ccccc2n1CCN1CCCCC1`, with 0.546; and `CCOC(=O)Cc1c(C)nc2c(-c3ccccc3)c(-c3ccccc3)[nH]n2c1=O`, with 0.421; and `O=C(N/N=C/c1cccc(F)c1)c1c(O)c2ccccc2[nH]c1=O`, with -0.268.
With `O=C1c2oc3ccccc3c(=O)c2C(c2cccc(O)c2)N1CCCN1CCOCC1` (centres undefined) the figure was 0.0855; with `COc1cccc(C2CC(=O)Nc3cc(OC)c(OC)c(OC)c32)c1OC` (centres undefined), -0.0778.
Then `CC(O)CNc1ncnc2nc[nH]c12` (centres undefined), with 0.604; and `O=C(NCCCN1CCOCC1)c1ccc(Cl)c(S(=O)(=O)N2CCCCCC2)c1`, with 0.0312; and `O=C(CN(CC1CCCO1)C(=O)CCC(=O)Nc1ccccn1)NCC1CCCO1` (centres undefined), with -0.00608.
Regarding `CNC(=O)NC(=O)CSc1ncc(C(F)(F)F)cc1Cl`, the z-score was determined as 1.33.
With `O=C(NC1CCCCC1)C(c1cccnc1)N(C(=O)CCl)c1ccccc1Cl` (centres undefined) the figure was -0.00621; with `Cc1c(Cl)cccc1-n1c(SCC(=O)NCc2cccs2)nnc1-c1ccncc1`, 0.0133.
With `CCc1nnc(NS(=O)(=O)c2ccc(NC(=S)NC(=O)c3ccc(F)cc3)cc2)s1` the figure was 0.102; with `CC(C)c1noc2ncc(C(=O)c3cc(Cl)cc(Cl)c3O)cc12`, 0.113.
In turn, `O=C(CCC1CCCC1)Nc1nnc(-c2ccc3c(c2)OCO3)s1` displayed a z-score of 0.291.
With `Cc1ccccc1C(=O)NNC(=O)CSc1nnc(C)n1-c1ccccc1` the figure was 0.0371; with `Cc1cccc(OCCOc2ccccc2C=C(C#N)C#N)c1`, -0.472; with `C=CCn1c(SCC)nc(O)cc1=O`, -0.0583.
Then `CCCCCCn1c(CN2CCN(Cc3ccccc3)CC2)nc2c1c(=O)n(C)c(=O)n2C`, with 0.12.
Then `CCOC(=O)c1ccc(N2C(=O)C3C(/C=C/c4ccccc4)OC4(C(=O)c5ccccc5C4=O)C3C2=O)cc1` (centres undefined), with -0.217; and `Cn1c(Cc2ccccc2)nnc1SCCC(=O)Nc1ccccc1`, with -0.162; and `Cc1ccc(S(=O)(=O)N/N=C/c2ccc(OS(=O)(=O)c3ccc(C)c([N+](=O)[O-])c3)cc2)cc1`, with 0.202.
On to `Cc1ccc(C(=O)Nc2c(C(=O)NCc3ccco3)cnn2-c2ccccc2)cc1`, for which the z-score was -0.385.
Then `CC(=O)Nc1c(-c2ccc(F)cc2)nc2ccccn12`, with 2.25.
With `COc1ccc(C)cc1S(=O)(=O)N(C)CC(=O)NC1CC1` the figure was 0.411.
With `COc1ccc(C(OC(=O)c2cccs2)C(=O)NCC2CCCO2)cc1` (centres undefined) the figure was active: 8.22; with `CCOc1cc(-c2c(C)c(C)nc(N)c2C#N)ccc1O`, -0.372; with `CCn1c(Cc2ccccc2)nnc1SCC(=O)Nc1ccccc1N1CCOCC1`, -0.397.
`O=C(c1ccc(O)cc1)c1ccc(C(=O)O)c(C(=O)O)c1` gave a z-score of 0.13.
Take `CCC(=O)Nc1ccc(Cl)c(NC(=S)NC(=O)COc2ccc(Cl)cc2)c1`: the z-score is 0.622.
With `CN(C(=O)c1cccc(C#N)c1)c1nnc(-c2ccncc2)s1` the figure was -0.95; with `Cc1ccc(CSCCNS(=O)(=O)c2ccccc2)cc1`, -0.0516.
With `Cc1nnc(SCC(=O)NNC(=O)C(C)C)[nH]c1=O` the figure was -0.0447; with `CC(C)c1nc(-c2ccccn2)no1`, 0.249.
With `CC(C)OC(=O)CSc1nnc(-c2ccc(Cl)cc2)n1N` the figure was 0.659.
For `O=C(CN(Cc1ccc(F)cc1)C(=O)c1ccco1)NCc1ccc(F)cc1`, the z-score was -1.36.
Regarding `CC(=O)Nc1ccccc1OCC(=O)NCCc1ccc(Cl)cc1Cl`, the z-score is -0.153.
With `Cn1cnnc1SCc1ccc(C(=O)O)cc1` the figure was 0.795; with `O=C(O)CC(Cc1ccccc1)c1ccc2c(c1)OCO2` (centres undefined), 0.249; with `COc1ccc(-c2oc3ncnc(NCCN4CCOCC4)c3c2-c2ccc(OC)cc2)cc1`, -0.338.
With `COC(=O)C1=C(C)NC2=C(C(=O)CCC2)C1c1cn(Cc2ccc(Cl)cc2Cl)nc1-c1ccccc1` (centres undefined) the figure was -0.35; with `CC1CCCCC1NC(=O)C1CCN(S(=O)(=O)c2ccc3c(c2)CCC(=O)N3)CC1` (centres undefined), 0.0122.
Compound `CC(=O)Nc1sc(C)c(C)c1C(=O)OCC(=O)Nc1cc(S(=O)(=O)N2CCCCC2)ccc1Cl` gave a z-score of 0.0182.
`N#Cc1ccc(-c2ccc(OCC(O)Cn3nnc4ccccc43)cc2)cc1` (centres undefined): the z-score is -0.106.
Compound `CCOC(=O)C1=C(N)Oc2c(oc(CO)cc2=O)C1c1ccc(F)cc1` (centres undefined) yielded a z-score of -0.156.
Then `CC(C)c1ccc(-c2nnn(CCC(=O)O)n2)cc1`, with -0.245; and `COC(=O)C1=C(NC(=O)CCCCl)CCS1`, with -0.0894.
Then `CN(c1ccccc1)c1ccc(/C=C(\CCC(=O)O)c2nc3ccccc3s2)cc1[N+](=O)[O-]`, with 0.629; and `COc1ccc(CCNS(=O)(=O)c2cccc(F)c2)cc1OC`, with -0.129; and `CC(=O)c1sc(NC(=O)C2COc3ccccc3O2)nc1C` (centres undefined), with 0.441.
With `Cc1onc(-c2ccccc2)c1C(=O)Nc1nc(-c2ccc(F)c(F)c2)cs1` the figure was -0.108.
